Measured values taken from PMC12820563.
This is one part of the list. The list includes weakly bound sequences.

molecular target: T1, MBP-FoxP3dN (UniProt Q99JB6); assay: PD-seq (MBP pull-down with sequencing); settings: 20 mM Tris-HCl pH 7.5, 100 mM NaCl, 1.5 mM MgCl2, 0.4 uM protein, 0.1 uM dsDNA library, 30 min, room temperature, amylose pull-down; high values mean tight binding; double strand, one strand shown
T1 sequence: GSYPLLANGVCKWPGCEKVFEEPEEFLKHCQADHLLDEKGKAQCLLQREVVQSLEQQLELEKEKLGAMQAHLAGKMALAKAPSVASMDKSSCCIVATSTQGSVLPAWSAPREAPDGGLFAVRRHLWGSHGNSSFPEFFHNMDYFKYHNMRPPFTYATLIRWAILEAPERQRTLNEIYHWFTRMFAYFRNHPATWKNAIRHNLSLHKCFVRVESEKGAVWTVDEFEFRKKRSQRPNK

| Sequence | binding signal (RPM ratio (pull-down/input)) |
| --- | --- |
| GATGATTGTTCTCCCAGCTGATGAATTTGCATGGTCGAGTAAACAAATTTTCCTAATCTTTCTGTTCAAGCGCCATCTAC | 2.9 |
| GATGATTGTTCTCCCAGCTGATGAATTCCGTGGCTCGAGTAAACAAATTTTCCTAATCTTTCTGTTCAAGCGCCATCTAC | 0.541 |
| GATGATTGTTCTCCCAGCTGATGAATTACCTATATCGAGTAAACAAATTTTCCTAATCTTTCTGTTCAAGCGCCATCTAC | 0.414 |
| GATGATTGTTCTCCCAGCTGATGAATTTAACCACTCGAGTAAACAAATTTTCCTAATCTTTCTGTTCAAGCGCCATCTAC | 0.412 |
| GATGATTGTTCTCCCAGCTGATGAATTCACCTCATCGAGTAAACAAATTTTCCTAATCTTTCTGTTCAAGCGCCATCTAC | 0.374 |
| GATGATTGTTCTCCCAGCTGATGAATTCTTAATGTCGAGTAAACAAATTTTCCTAATCTTTCTGTTCAAGCGCCATCTAC | 0.369 |
| GATGATTGTTCTCCCAGCTGATGAATTTTCGGCATCGAGTAAACAAATTTTCCTAATCTTTCTGTTCAAGCGCCATCTAC | 0.816 |
| GATGATTGTTCTCCCAGCTGATGAATTGCGATAGTCGAGTAAACAAATTTTCCTAATCTTTCTGTTCAAGCGCCATCTAC | 1.09 |
| GATGATTGTTCTCCCAGCTGATGAATTGCTCGACTCGAGTAAACAAATTTTCCTAATCTTTCTGTTCAAGCGCCATCTAC | 0.415 |
| GATGATTGTTCTCCCAGCTGATGAATTCTTTCGTTCGAGTAAACAAATTTTCCTAATCTTTCTGTTCAAGCGCCATCTAC | 0.225 |
| GATGATTGTTCTCCCAGCTGATGAATTCGTGACCTCGAGTAAACAAATTTTCCTAATCTTTCTGTTCAAGCGCCATCTAC | 0.418 |
| GATGATTGTTCTCCCAGCTGATGAATTACGGGCCTCGAGTAAACAAATTTTCCTAATCTTTCTGTTCAAGCGCCATCTAC | 0.504 |
| GATGATTGTTCTCCCAGCTGATGAATTCCTTTTGTCGAGTAAACAAATTTTCCTAATCTTTCTGTTCAAGCGCCATCTAC | 0.531 |
| GATGATTGTTCTCCCAGCTGATGAATTTTCTTGATCGAGTAAACAAATTTTCCTAATCTTTCTGTTCAAGCGCCATCTAC | 0.304 |
| GATGATTGTTCTCCCAGCTGATGAATTAATACTCTCGAGTAAACAAATTTTCCTAATCTTTCTGTTCAAGCGCCATCTAC | 0.53 |
| GATGATTGTTCTCCCAGCTGATGAATTAGAAGGGTCGAGTAAACAAATTTTCCTAATCTTTCTGTTCAAGCGCCATCTAC | 0.267 |
| GATGATTGTTCTCCCAGCTGATGAATTTATGGTCTCGAGTAAACAAATTTTCCTAATCTTTCTGTTCAAGCGCCATCTAC | 2.6 |
| GATGATTGTTCTCCCAGCTGATGAATTGGTGACGTCGAGTAAACAAATTTTCCTAATCTTTCTGTTCAAGCGCCATCTAC | 0.486 |
| GATGATTGTTCTCCCAGCTGATGAATTATTCTCTTCGAGTAAACAAATTTTCCTAATCTTTCTGTTCAAGCGCCATCTAC | 0.292 |
| GATGATTGTTCTCCCAGCTGATGAATTTCTCTAATCGAGTAAACAAATTTTCCTAATCTTTCTGTTCAAGCGCCATCTAC | 0.297 |
| GATGATTGTTCTCCCAGCTGATGAATTAGGGTCCTCGAGTAAACAAATTTTCCTAATCTTTCTGTTCAAGCGCCATCTAC | 0.54 |

| Sequence | binding signal (RPM ratio (pull-down/input)) |
| --- | --- |
| GATGATTGTTCTCCCAGCTGATGAATTATCTAATTCGAGTAAACAAATTTTCCTAATCTTTCTGTTCAAGCGCCATCTAC | 0.315 |
| GATGATTGTTCTCCCAGCTGATGAATTTTGAATATCGAGTAAACAAATTTTCCTAATCTTTCTGTTCAAGCGCCATCTAC | 0.82 |
| GATGATTGTTCTCCCAGCTGATGAATTGATGTCATCGAGTAAACAAATTTTCCTAATCTTTCTGTTCAAGCGCCATCTAC | 1.17 |
| GATGATTGTTCTCCCAGCTGATGAATTTGGCCCCTCGAGTAAACAAATTTTCCTAATCTTTCTGTTCAAGCGCCATCTAC | 1.41 |
| GATGATTGTTCTCCCAGCTGATGAATTACTAGGGTCGAGTAAACAAATTTTCCTAATCTTTCTGTTCAAGCGCCATCTAC | 0.234 |
| GATGATTGTTCTCCCAGCTGATGAATTAGCCGGATCGAGTAAACAAATTTTCCTAATCTTTCTGTTCAAGCGCCATCTAC | 0.197 |
| GATGATTGTTCTCCCAGCTGATGAATTACGGCAATCGAGTAAACAAATTTTCCTAATCTTTCTGTTCAAGCGCCATCTAC | 1.93 |
| GATGATTGTTCTCCCAGCTGATGAATTTCACTAGTCGAGTAAACAAATTTTCCTAATCTTTCTGTTCAAGCGCCATCTAC | 0.269 |
| GATGATTGTTCTCCCAGCTGATGAATTACGAAGCTCGAGTAAACAAATTTTCCTAATCTTTCTGTTCAAGCGCCATCTAC | 0.301 |
| GATGATTGTTCTCCCAGCTGATGAATTAGTATACTCGAGTAAACAAATTTTCCTAATCTTTCTGTTCAAGCGCCATCTAC | 4.99 |
| GATGATTGTTCTCCCAGCTGATGAATTAGACGCGTCGAGTAAACAAATTTTCCTAATCTTTCTGTTCAAGCGCCATCTAC | 0.709 |
| GATGATTGTTCTCCCAGCTGATGAATTACGTTCGTCGAGTAAACAAATTTTCCTAATCTTTCTGTTCAAGCGCCATCTAC | 0.554 |
| GATGATTGTTCTCCCAGCTGATGAATTACCCTTCTCGAGTAAACAAATTTTCCTAATCTTTCTGTTCAAGCGCCATCTAC | 0.356 |
| GATGATTGTTCTCCCAGCTGATGAATTACGAGCATCGAGTAAACAAATTTTCCTAATCTTTCTGTTCAAGCGCCATCTAC | 0.816 |
| GATGATTGTTCTCCCAGCTGATGAATTCGCTGACTCGAGTAAACAAATTTTCCTAATCTTTCTGTTCAAGCGCCATCTAC | 0.961 |
| GATGATTGTTCTCCCAGCTGATGAATTCCGTAAGTCGAGTAAACAAATTTTCCTAATCTTTCTGTTCAAGCGCCATCTAC | 0.394 |
| GATGATTGTTCTCCCAGCTGATGAATTTTACAATTCGAGTAAACAAATTTTCCTAATCTTTCTGTTCAAGCGCCATCTAC | 0.31 |
| GATGATTGTTCTCCCAGCTGATGAATTATACCCTTCGAGTAAACAAATTTTCCTAATCTTTCTGTTCAAGCGCCATCTAC | 0.367 |
| GATGATTGTTCTCCCAGCTGATGAATTCAAACCGTCGAGTAAACAAATTTTCCTAATCTTTCTGTTCAAGCGCCATCTAC | 0.258 |
| GATGATTGTTCTCCCAGCTGATGAATTATATCGTTCGAGTAAACAAATTTTCCTAATCTTTCTGTTCAAGCGCCATCTAC | 1.04 |
| GATGATTGTTCTCCCAGCTGATGAATTTGGTACATCGAGTAAACAAATTTTCCTAATCTTTCTGTTCAAGCGCCATCTAC | 0.714 |

| Sequence | binding signal (RPM ratio (pull-down/input)) |
| --- | --- |
| GATGATTGTTCTCCCAGCTGATGAATTGTTGAGGTCGAGTAAACAAATTTTCCTAATCTTTCTGTTCAAGCGCCATCTAC | 0.677 |
| GATGATTGTTCTCCCAGCTGATGAATTTGGGACGTCGAGTAAACAAATTTTCCTAATCTTTCTGTTCAAGCGCCATCTAC | 0.354 |
| GATGATTGTTCTCCCAGCTGATGAATTTCCATTCTCGAGTAAACAAATTTTCCTAATCTTTCTGTTCAAGCGCCATCTAC | 0.384 |
| GATGATTGTTCTCCCAGCTGATGAATTGGTAAAATCGAGTAAACAAATTTTCCTAATCTTTCTGTTCAAGCGCCATCTAC | 0.211 |
| GATGATTGTTCTCCCAGCTGATGAATTGGCGGGGTCGAGTAAACAAATTTTCCTAATCTTTCTGTTCAAGCGCCATCTAC | 0.314 |
| GATGATTGTTCTCCCAGCTGATGAATTAAAATGTTCGAGTAAACAAATTTTCCTAATCTTTCTGTTCAAGCGCCATCTAC | 0.448 |
| GATGATTGTTCTCCCAGCTGATGAATTTCACGTCTCGAGTAAACAAATTTTCCTAATCTTTCTGTTCAAGCGCCATCTAC | 0.378 |
| GATGATTGTTCTCCCAGCTGATGAATTAGAATCTTCGAGTAAACAAATTTTCCTAATCTTTCTGTTCAAGCGCCATCTAC | 0.454 |
| GATGATTGTTCTCCCAGCTGATGAATTACTCTAGTCGAGTAAACAAATTTTCCTAATCTTTCTGTTCAAGCGCCATCTAC | 0.281 |
| GATGATTGTTCTCCCAGCTGATGAATTATTTTACTCGAGTAAACAAATTTTCCTAATCTTTCTGTTCAAGCGCCATCTAC | 0.529 |
| GATGATTGTTCTCCCAGCTGATGAATTTTTCCCCTCGAGTAAACAAATTTTCCTAATCTTTCTGTTCAAGCGCCATCTAC | 0.195 |
| GATGATTGTTCTCCCAGCTGATGAATTCATAAGGTCGAGTAAACAAATTTTCCTAATCTTTCTGTTCAAGCGCCATCTAC | 0.205 |
| GATGATTGTTCTCCCAGCTGATGAATTACATGGATCGAGTAAACAAATTTTCCTAATCTTTCTGTTCAAGCGCCATCTAC | 0.348 |
| GATGATTGTTCTCCCAGCTGATGAATTATATCCTTCGAGTAAACAAATTTTCCTAATCTTTCTGTTCAAGCGCCATCTAC | 0.462 |
| GATGATTGTTCTCCCAGCTGATGAATTGTAGACCTCGAGTAAACAAATTTTCCTAATCTTTCTGTTCAAGCGCCATCTAC | 0.413 |
| GATGATTGTTCTCCCAGCTGATGAATTGTTATTATCGAGTAAACAAATTTTCCTAATCTTTCTGTTCAAGCGCCATCTAC | 5.54 |
| GATGATTGTTCTCCCAGCTGATGAATTTGCACACTCGAGTAAACAAATTTTCCTAATCTTTCTGTTCAAGCGCCATCTAC | 0.829 |
| GATGATTGTTCTCCCAGCTGATGAATTACTGCGCTCGAGTAAACAAATTTTCCTAATCTTTCTGTTCAAGCGCCATCTAC | 0.516 |
| GATGATTGTTCTCCCAGCTGATGAATTTAACCCTTCGAGTAAACAAATTTTCCTAATCTTTCTGTTCAAGCGCCATCTAC | 0.322 |
| GATGATTGTTCTCCCAGCTGATGAATTGCATTACTCGAGTAAACAAATTTTCCTAATCTTTCTGTTCAAGCGCCATCTAC | 2.36 |
| GATGATTGTTCTCCCAGCTGATGAATTGTAGAAATCGAGTAAACAAATTTTCCTAATCTTTCTGTTCAAGCGCCATCTAC | 0.336 |
